# T1: human LAG-3 expressed on 293T-lacZ cells (Homo sapiens, UniProt P18627)
# T1 construct: An expression plasmid of the full-length human LAG-3 was introduced into the 293T cells stably expressing β-galactosidase; expressed in transfected cells; host or cells: 293T-lacZ cells (293T stably expressing β-galactosidase), transient transfection
# T1 sequence (P18627 23-525): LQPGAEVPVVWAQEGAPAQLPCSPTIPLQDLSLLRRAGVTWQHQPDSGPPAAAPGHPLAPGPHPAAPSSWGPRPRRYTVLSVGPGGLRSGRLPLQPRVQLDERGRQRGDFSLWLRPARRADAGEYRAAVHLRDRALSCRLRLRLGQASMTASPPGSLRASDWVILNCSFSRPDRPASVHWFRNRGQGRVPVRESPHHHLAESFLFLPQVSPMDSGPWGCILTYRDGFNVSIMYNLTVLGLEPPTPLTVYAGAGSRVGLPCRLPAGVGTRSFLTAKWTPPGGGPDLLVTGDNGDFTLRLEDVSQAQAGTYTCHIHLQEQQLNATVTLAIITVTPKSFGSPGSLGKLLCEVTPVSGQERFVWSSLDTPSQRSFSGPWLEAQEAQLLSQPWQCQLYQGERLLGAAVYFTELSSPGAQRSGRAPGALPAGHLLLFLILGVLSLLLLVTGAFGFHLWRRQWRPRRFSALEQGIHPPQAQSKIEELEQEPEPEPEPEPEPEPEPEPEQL
# B1: hLA212_H2/L4: humanized antibody; heavy chain positions 20 to 470 of SEQ ID No: 28, light chain positions 21 to 234 of SEQ ID No: 38 (antibody)
# heavy: EVQLVESGGGLVQPGGSLRLSCAASGFTYRSYVMAWVRQAPGKGLEWVGSISTGGGNTYYRDSVKGRFTISRDNAKNTLYLQMNSLRAEDTAVYYCAEDMSNSGYGLFDYWGQGTLVTVSSASTKGPSVFPLAPSSKSTSGGTAALGCLVKDYFPEPVTVSWNSGALTSGVHTFPAVLQSSGLYSLSSVVTVPSSSLGTQTYICNVNHKPSNTKVDKRV[left out - human IgG1 Fc]
# light: DIQMTQSPSSMSISVGDRVTMTCKAGQNVDNNIAWYQKKPGQSPKLLIYYASNRNTGVPSRFSGSGSGTDFTLTISSVQPEDFATYYCQRISNSPYTFGQGTKLELKRTVAAPSVFIFPPSDEQLKSGTASVVCLLNNFYPREAKVQWKVDNALQSGNSQESVTEQDSKDSTYSLSSTLTLSKADYEKHKVYACEVTHQGLSSPVTKSFNRGEC
# B2: hLA212_H3/L3: humanized antibody; heavy chain positions 20 to 470 of SEQ ID No: 30, light chain positions 21 to 234 of SEQ ID No: 36 (antibody)
# heavy: EVQLVESGGGLVQPGGSLRLSCAASGFTYRSYVMAWVRQAPGKGLEWVASISTGGGNTYYRDSVKGRFTISRDNAKNTLYLQMDSLRAEDTAVYYCAEDMSNSGYGLFDYWGQGTLVTVSSASTKGPSVFPLAPSSKSTSGGTAALGCLVKDYFPEPVTVSWNSGALTSGVHTFPAVLQSSGLYSLSSVVTVPSSSLGTQTYICNVNHKPSNTKVDKRV[left out - human IgG1 Fc]
# light: NIQMTQSPSSLSASVGDRVTITCKAGQNVDNNIAWYQKKPGQSPKLLIYYASNRNTGVPDRFSGGGYGTDFTLTISSLQPEDFAFYYCQRISNSPYTFGQGTKVEIKRTVAAPSVFIFPPSDEQLKSGTASVVCLLNNFYPREAKVQWKVDNALQSGNSQESVTEQDSKDSTYSLSSTLTLSKADYEKHKVYACEVTHQGLSSPVTKSFNRGEC
# B3: hLA212_H3/L1: humanized antibody; heavy chain positions 20 to 470 of SEQ ID No: 30, light chain positions 21 to 234 of SEQ ID No: 32 (antibody)
# heavy: EVQLVESGGGLVQPGGSLRLSCAASGFTYRSYVMAWVRQAPGKGLEWVASISTGGGNTYYRDSVKGRFTISRDNAKNTLYLQMDSLRAEDTAVYYCAEDMSNSGYGLFDYWGQGTLVTVSSASTKGPSVFPLAPSSKSTSGGTAALGCLVKDYFPEPVTVSWNSGALTSGVHTFPAVLQSSGLYSLSSVVTVPSSSLGTQTYICNVNHKPSNTKVDKRV[left out - human IgG1 Fc]
# light: DIQMTQSPSSLSASVGDRVTITCKAGQNVDNNIAWYQQKPGQAPKLLIYYASNRNTGVPSRFSGSGSGTDFTLTISSLQPEDFATYYCQRISNSPYTFGQGTKVEIKRTVAAPSVFIFPPSDEQLKSGTASVVCLLNNFYPREAKVQWKVDNALQSGNSQESVTEQDSKDSTYSLSSTLTLSKADYEKHKVYACEVTHQGLSSPVTKSFNRGEC
# B4: hLA212_H2/L5: humanized antibody; heavy chain positions 20 to 470 of SEQ ID No: 28, light chain positions 21 to 234 of SEQ ID No: 40 (antibody)
# heavy: EVQLVESGGGLVQPGGSLRLSCAASGFTYRSYVMAWVRQAPGKGLEWVGSISTGGGNTYYRDSVKGRFTISRDNAKNTLYLQMNSLRAEDTAVYYCAEDMSNSGYGLFDYWGQGTLVTVSSASTKGPSVFPLAPSSKSTSGGTAALGCLVKDYFPEPVTVSWNSGALTSGVHTFPAVLQSSGLYSLSSVVTVPSSSLGTQTYICNVNHKPSNTKVDKRV[left out - human IgG1 Fc]
# light: NIQMTQSPSSMSISVGDRVTMTCKAGQNVDNNIAWYQKKPGQSPKLLIYYASNRNTGVPDRFSGGGYGTDFTLTISSVQPEDAAFYYCQRISNSPYTFGQGTKLELKRTVAAPSVFIFPPSDEQLKSGTASVVCLLNNFYPREAKVQWKVDNALQSGNSQESVTEQDSKDSTYSLSSTLTLSKADYEKHKVYACEVTHQGLSSPVTKSFNRGEC
# Assays:
# [1] = system: 293T-lacZ cells expressing human LAG-3; assay: In vitro ADCC assay, human PBMC effector cells, β-galactosidase release; assay type: cell-based; conditions: target 293T-lacZ/hLAG-3 cells, effector human PBMCs, percentage of cells lysed
# Method: 293FT cells (Invitrogen Corp.) were transfected with pLenti6/V5-GW/lacZ, and ViraPower™ Packaging Mix (Invitrogen Corp.) according to the accompanying protocols to prepare a recombinant lentivirus to express the β-galactosidase gene. 293T cells were infected by the obtained recombinant lentivirus according to the protocol of ViraPower Lentiviral Expression Systems (Invitrogen Corp). Virus-infected cells were selected using 10 μg/mL blasticidin (Invitrogen Corp.) to obtain a line stably expressing β-galactosidase. An expression plasmid of the full-length human LAG-3 was introduced into the 293T cells stably expressing β-galactosidase (hereinafter, referred to as 293T-lacZ) using Lipofectamine 2000 (manufactured by Invitrogen Corp.), and the cells were cultured for 1 day and then dissociated and recovered using TrypLExpress (manufactured by Invitrogen Corp). The cells were washed twice with phenol red-free RPMI1640 containing 5% FBS (hereinafter, referred to as a “medium for ADCC”). The number of live cells was counted by the trypan blue dye exclusion test. The cells were resuspended to 1×10^5 cells/ml in a medium for ADCC and used as target cells.
# PBMCs were separated from human peripheral blood by Ficoll centrifugation, and a suspension adjusted to a live cell density of 1.2×10^6 cells/mL in a medium for ADCC was used as effector cells.
# The ADCC activity of the purified rat anti-human LAG-3 antibodies rLA204, rLA212, rLA225, rLA869, and rLA1264 was investigated by the following method. To a 96-well U-bottom microplate containing 50 μL/well of the antibody solution, was added 50 μL/well of the target cells (which will be hereinafter referred to as 293T-lacZ/hLAG-3 cells) of Example 1)-5-1, followed by standing at 4° C. for 30 minutes. Then, 75 μL/well of effector cells prepared as in Example 1)-5-2 (which was however suspended to 2×10^6 cells/mL) was added thereto, followed by centrifugation at room temperature at 1200 rpm for 5 minutes, and thereafter the cells were cultured overnight under conditions of 37° C. and 5% CO2. On the next day, 50 μl of the supernatant was recovered into a black plate (manufactured by Corning Inc). A solution of β-Glo assay system (manufactured by Promega Corp.) was added thereto at 50 μl/well. The luminescence intensity was measured using a plate reader (ENVISION; manufactured by PerkinElmer, Inc). The percentage of cells lysed by ADCC activity was calculated according to the following formula. Percentage of cells lysed (%)=(A−B)/(C−B)×100 • A: Count of each sample well • B: Average of spontaneous release (wells without antibody added) counts (n=3)
# When adding the antibody, 50 μL of a medium for ADCC was added thereto. Except for that, the same operation as in the sample well was performed.
# C: Average of maximum release (wells containing target cells lysed with a surfactant) counts (n=3)
# When adding the antibody and adding the effector cells, 50 μL and 75 μL of a medium for ADCC were added thereto respectively. For the assay, 175 μl of the β-Glo assay system solution was added to each well containing the target cells and mixed therewith. A 100 μl aliquot thereof was added to a black plate to carry out the assay.
# The ADCC activity of the humanized anti-human LAG-3 antibodies (hLA212) was investigated by the method described in Example 2)-2.
# The in vitro ADCC activity of the humanized anti-human LAG-3 antibody hLA212_H4/L2 was evaluated by the method described in Example 7)-2.
# [2] = target: T1, human LAG-3 expressed on 293T-lacZ cells; assay: Binding activity to 293T-lacZ cells expressing human LAG-3 by flow cytometry; conditions: mean fluorescence intensity
# Method: The expression plasmid pcDNA3.1-hLAG-3 of human LAG-3 was introduced into the 293T-lacZ cells (described in Example 1)-5-1), using Lipofectamine 2000 (manufactured by Invitrogen Corp.), and the cells were cultured for 1 day and thereafter used for flow cytometry. The flow cytometry was performed according to the method described in Example 1)-4, except that an Anti-Human IgG PE conjugate (manufactured by Jackson ImmunoResearch Laboratories, Inc.) diluted 200-fold with a FACS buffer was used as the secondary antibody.
# The human LAG-3-expression plasmid pcDNA3.1/hLAG-3 was introduced into the 293T-lacZ cells (described in Example 1)-5-1), using Lipofectamine 2000 (manufactured by Invitrogen Corp.), and the cells were cultured for 1 day and thereafter used for flow cytometry. The flow cytometry was performed according to the method described in Example 1)-4, but an Anti-Human IgG PE conjugate (manufactured by Jackson ImmunoResearch Laboratories, Inc.) diluted 200-fold with a FACS buffer was used as the secondary antibody.
# The binding of the humanized anti-human LAG-3 antibody hLA212_H4/L2 to human LAG-3-expressing 293T-lacZ cells was investigated by flow cytometry according to the method described in Example 7)-2.
Molecule,ADCC activity on cells expressing human LAG-3 [1],binding activity to 293T-lacZ cells expressing human LAG-3 [2]
B1,"concentration-dependent ADCC activity against the 293T-lacZ cells expressing human LAG-3, almost comparable to the human chimeric anti-LAG-3 antibody cLA212","concentration-dependent binding activity to the 293T-lacZ cells expressing human LAG-3, comparable to the human chimeric anti-LAG-3 antibody cLA212"
B2,"concentration-dependent ADCC activity against the 293T-lacZ cells expressing human LAG-3, almost comparable to the human chimeric anti-LAG-3 antibody cLA212","concentration-dependent binding activity to the 293T-lacZ cells expressing human LAG-3, comparable to the human chimeric anti-LAG-3 antibody cLA212"
B3,"concentration-dependent ADCC activity against the 293T-lacZ cells expressing human LAG-3, almost comparable to the human chimeric anti-LAG-3 antibody cLA212","concentration-dependent binding activity to the 293T-lacZ cells expressing human LAG-3, comparable to the human chimeric anti-LAG-3 antibody cLA212"
B4,"concentration-dependent ADCC activity against the 293T-lacZ cells expressing human LAG-3, almost comparable to the human chimeric anti-LAG-3 antibody cLA212","concentration-dependent binding activity to the 293T-lacZ cells expressing human LAG-3, comparable to the human chimeric anti-LAG-3 antibody cLA212"

# From patent US12145987B2, “Method for depleting cytotoxic T cells using an anti-LAG-3 antibody composition” (Daiichi Sankyo Company, Limited, priority 2017, dated 2024)
